# According to PubChem BioAssay AID1347165 (National Center for Advancing Translational Sciences (NCATS), 2019):
# The campaign covered roughly 220,000 compounds. About 5,700 (2.6%) were called active. The shares of active, inactive and inconclusive entries below differ from those in the screen. The call rests on the fitted dose curve; in most records, active means well fitted inhibition curve with a large enough effect; inconclusive means small, poorly fitted or top-dose-only effect; inactive means no such curve, though single readings can be large or run the other way. Where the call is inconclusive, the potency comes from a doubtful curve fit.
# Target: Lysine-specific demethylase 5B (Homo sapiens) (UniProt Q9UGL1)
# Sequence of UniProt Q9UGL1 (Q9UGL1 whole entry, looked up): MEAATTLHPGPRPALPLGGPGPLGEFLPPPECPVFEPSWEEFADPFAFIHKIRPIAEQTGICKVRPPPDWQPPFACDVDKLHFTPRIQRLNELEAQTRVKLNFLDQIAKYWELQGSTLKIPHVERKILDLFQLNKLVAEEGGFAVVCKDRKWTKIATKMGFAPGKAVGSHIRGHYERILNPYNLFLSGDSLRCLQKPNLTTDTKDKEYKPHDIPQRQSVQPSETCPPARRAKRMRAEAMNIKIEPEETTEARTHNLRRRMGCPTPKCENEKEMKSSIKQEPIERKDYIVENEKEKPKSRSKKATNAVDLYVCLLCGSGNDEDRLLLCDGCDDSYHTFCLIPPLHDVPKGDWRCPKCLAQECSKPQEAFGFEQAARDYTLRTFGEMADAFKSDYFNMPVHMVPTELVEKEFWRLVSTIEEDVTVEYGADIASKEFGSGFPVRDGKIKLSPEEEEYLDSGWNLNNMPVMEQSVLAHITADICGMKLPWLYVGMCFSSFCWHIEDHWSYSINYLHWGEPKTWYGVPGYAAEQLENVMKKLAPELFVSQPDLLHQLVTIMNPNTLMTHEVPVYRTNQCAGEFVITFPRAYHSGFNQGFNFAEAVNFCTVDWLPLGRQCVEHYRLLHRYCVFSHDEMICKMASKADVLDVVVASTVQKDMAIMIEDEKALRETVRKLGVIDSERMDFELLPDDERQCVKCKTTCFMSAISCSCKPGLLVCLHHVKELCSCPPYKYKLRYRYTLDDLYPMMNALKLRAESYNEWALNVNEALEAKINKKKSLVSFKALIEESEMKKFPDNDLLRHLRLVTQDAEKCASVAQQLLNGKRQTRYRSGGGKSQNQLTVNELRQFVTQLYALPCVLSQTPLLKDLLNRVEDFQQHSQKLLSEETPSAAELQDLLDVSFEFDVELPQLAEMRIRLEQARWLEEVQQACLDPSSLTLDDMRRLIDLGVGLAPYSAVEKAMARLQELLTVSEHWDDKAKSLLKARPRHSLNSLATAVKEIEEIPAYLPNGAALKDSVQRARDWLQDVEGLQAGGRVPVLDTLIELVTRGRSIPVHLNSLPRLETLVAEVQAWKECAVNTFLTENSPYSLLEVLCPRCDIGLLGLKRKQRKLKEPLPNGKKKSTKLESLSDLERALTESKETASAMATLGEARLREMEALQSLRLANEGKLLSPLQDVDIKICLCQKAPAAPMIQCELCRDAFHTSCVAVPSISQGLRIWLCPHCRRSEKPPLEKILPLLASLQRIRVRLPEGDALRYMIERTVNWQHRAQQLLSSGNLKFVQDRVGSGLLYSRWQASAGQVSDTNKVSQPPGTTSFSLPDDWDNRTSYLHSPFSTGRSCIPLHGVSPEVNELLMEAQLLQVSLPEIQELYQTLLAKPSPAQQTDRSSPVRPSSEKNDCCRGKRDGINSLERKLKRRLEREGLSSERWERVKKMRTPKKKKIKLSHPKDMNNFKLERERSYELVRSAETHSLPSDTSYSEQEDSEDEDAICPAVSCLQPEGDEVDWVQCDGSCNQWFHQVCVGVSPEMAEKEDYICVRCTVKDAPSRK
# Assay: Primary screen for KDM5B Histone Demethylases FDH-coupled qHTS; further: nearly all actives have a fitted effect of over 70% in size
# Details: FDH-coupled NADH fluorescence (FDH is formaldehyde dehydrogenase); series mostly up to 57.7 µM
# In short: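 Compound dilutions met 200 nM (final) KDM5BΔAP for 10 min at room temperature before substrate addition. The substrate mix held 12.5 µM H3K4me3 with cofactors 25 µM α-ketoglutarate and 50 µM Fe²⁺. NADH signal gain over 30 min defined activity.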
# Potency means the concentration at half of the fitted maximal effect; tags describe the fitted curve by direction and shape.
row,SMILES,Potency
1,COC(=O)c1sc(-c2ccc(C(C)(C)C)cc2)cc1NC(=O)COCC(=O)O,"inconclusive: 28.2 µM [inhibitor, partial curve, poor fit]"
